PubChem BioAssay (NCI)
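All cell lines were grown in 96-well plates and treated with compound for 48 hours. GI50 is the concentration that inhibits growth by half. At the TGI there is no net growth.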

Tested on: NCI-H322M lung
Assay: NCI anticancer screen, dose series, 48 h

In the case of `Cc1[nH]nc2ccc3nc(-c4cn[nH]c4C(F)(F)F)c4c(c3c12)CCCC4`, the GI50 is reported as 4.1 µM and the TGI is reported as 16 µM.
`COc1cccc(/C=N/NC(=O)c2ccc3nc(-c4ccc(Cl)cc4)[nH]c3c2)c1O` showed a GI50 of 0.843 µM and a TGI of 2.7 µM.
